Reference: article PMC5892938
Some of the results follow. At the low end of the ranking the order means little.

target: GST-SBP-SLBP (stem-loop binding protein) (UniProt Q14493); test: targeted RNA Bind-n-Seq; details: RBNS binding buffer: 25 mM Tris pH 7.5, 150 mM KCl, 3 mM MgCl2, 0.1% Tween, 0.5 mg/mL BSA, 1 mM DTT; 27 nM protein, 750 pM RNA pool; temperature not stated; high values mean tight binding;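 also: DESeq read counts versus GST-SBP nonspecific binding control pulldown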

Sequence | binding signal (log2 fold change)
GGUCACGUCUCAAUCAACUCAUCCCCCAGGGAAAUCCCUGGUAUUCUCAACAGCUCGCAGUCAAG | -0.308
GGUCACGUCUCAAUCAACUCAAUUUCCAGGGAAAGCCCUGGUUAACUCAACAGCUCGCAGUCAAG | 0.204
GGUCACGUCUCAAUCAACUCAACAGAGGGGGGGAAAACCCCUUUACCCUCAAUCUCAACAGCUCGCAGUCAAG | -0.303
GGUCACGUCUCAAUCAACUCUAUCCCCAGGGAAAUCCCUGGCAAAUUCAACAGCUCGCAGUCAAG | -0.0972
GGUCACGUCUCAAUCAACUCAUCAGAGGGGGGGAAAACCCCUUUGCCCUCACAAUCAACAGCUCGCAGUCAAG | 0.0708
GGUCACGUCUCAAUCAACUCGUUUUCAGGAGUUUUCUCCUGUAUUUUCAACAGCUCGCAGUCAAG | -0.054
GGUCACGUCUCAAUCAACUCAGUCUCAGGAGUUUGCUCCUGUAUUUUCAACAGCUCGCAGUCAAG | 0.0422
GGUCACGUCUCAAUCAACUCAUACGAGGGGGGGAAAACCCCUUUACCCUCUUUUUCAACAGCUCGCAGUCAAG | -0.13
GGUCACGUCUCAAUCAACUCUACUCCCAGGGAAACCCCUGGUAAUCUCAACAGCUCGCAGUCAAG | 0.243
GGUCACGUCUCAAUCAACUCUCCAGAGGGGGGGAAAACCCCUUUGCCCUCAAAUUCAACAGCUCGCAGUCAAG | -0.106
GGUCACGUCUCAAUCAACUCAGUUUCAGGAGUUUACUCCUGCAUUUUCAACAGCUCGCAGUCAAG | -0.217
GGUCACGUCUCAAUCAACUCAUCCUCCAGGGAAAUCCCUGGUAAUUUCAACAGCUCGCAGUCAAG | 0.194
GGUCACGUCUCAAUCAACUCAUCUUCAGGAGUUUACUCCUGCUUUGUCAACAGCUCGCAGUCAAG | 0.159
GGUCACGUCUCAAUCAACUCUUUUUCAGGAGUUUACUCCUGUAAUCUCAACAGCUCGCAGUCAAG | 0.0791
GGUCACGUCUCAAUCAACUCAAUGUCAGGAGUUUUCUCCUGUUUACUCAACAGCUCGCAGUCAAG | 0.174
GGUCACGUCUCAAUCAACUCAACUCCAGGAGUUUACUCCUGUAAUCUCAACAGCUCGCAGUCAAG | 0.456
GGUCACGUCUCAAUCAACUCAUCUCCCAGGGAAAACCCUGGCUAACUCAACAGCUCGCAGUCAAG | -0.0349
GGUCACGUCUCAAUCAACUCUAUCUCAGGAGUUUCCUCCUGUUAUCUCAACAGCUCGCAGUCAAG | 0.157
GGUCACGUCUCAAUCAACUCUUCUCCAGGAGUUUUCUCCUGUAAUUUCAACAGCUCGCAGUCAAG | -0.0241
GGUCACGUCUCAAUCAACUCUUUCUCAGGAGUUUACUCCUGUUAAUUCAACAGCUCGCAGUCAAG | 0.211
GGUCACGUCUCAAUCAACUCAGUUUCAGGAGUUUGCUCCUGUAUUUUCAACAGCUCGCAGUCAAG | 0.00435
GGUCACGUCUCAAUCAACUCAUUUCCCAGGGAAAACCCUGGUAUUCUCAACAGCUCGCAGUCAAG | 0.178
GGUCACGUCUCAAUCAACUCUUUUUCAGGAGUUUACUCCUGCAAUCUCAACAGCUCGCAGUCAAG | -0.0284
GGUCACGUCUCAAUCAACUCUACUUCCAGGGAAAACCCUGGCUAUUUCAACAGCUCGCAGUCAAG | -0.109
GGUCACGUCUCAAUCAACUCUAUUCCAGGAGUUUUCUCCUGCAUAUUCAACAGCUCGCAGUCAAG | -0.131

Sequence | binding signal (log2 fold change)
GGUCACGUCUCAAUCAACUCAUCGUCAGGAGUUUGCUCCUGUAAUUUCAACAGCUCGCAGUCAAG | -0.0164
GGUCACGUCUCAAUCAACUCGUCUUCAGGAGUUUACUCCUGCUUAUUCAACAGCUCGCAGUCAAG | 0.0165
GGUCACGUCUCAAUCAACUCUUAAGAGGGGGGGAAAACCCCUUUACCCUCCAAAUCAACAGCUCGCAGUCAAG | -0.0057
GGUCACGUCUCAAUCAACUCAUCUCCCAGGGAAAACCCUGGCUUACUCAACAGCUCGCAGUCAAG | 0.244
GGUCACGUCUCAAUCAACUCUUUCUCCAGGGAAACCCCUGGUAAUCUCAACAGCUCGCAGUCAAG | -0.1
GGUCACGUCUCAAUCAACUCAUCUUCAGGAGUUUGCUCCUGCUAUCUCAACAGCUCGCAGUCAAG | 0.00705
GGUCACGUCUCAAUCAACUCAACGCCAGGAGUUUUCUCCUGUAUAUUCAACAGCUCGCAGUCAAG | -0.076
GGUCACGUCUCAAUCAACUCUUUUUCAGGAGUUUUCUCCUGUAGUCUCAACAGCUCGCAGUCAAG | 0.197
GGUCACGUCUCAAUCAACUCAGUCCCAGGAGUUUUCUCCUGUAUUUUCAACAGCUCGCAGUCAAG | 0.0336
GGUCACGUCUCAAUCAACUCAAUCUCCAGGGAAAACCCUGGUAUAUUCAACAGCUCGCAGUCAAG | -0.379
GGUCACGUCUCAAUCAACUCAACUCCCAGGGAAAUCCCUGGUUUUCUCAACAGCUCGCAGUCAAG | -0.0386
GGUCACGUCUCAAUCAACUCUUUUUCAGGAGUUUACUCCUGCAUUCUCAACAGCUCGCAGUCAAG | 0.161
GGUCACGUCUCAAUCAACUCUAUUUCAGGAGUUUCCUCCUGCAUAUUCAACAGCUCGCAGUCAAG | 0.119
GGUCACGUCUCAAUCAACUCUUUUUCCAGGGAAAGCCCUGGCAAAUUCAACAGCUCGCAGUCAAG | 0.0671
GGUCACGUCUCAAUCAACUCAUCCCCCAGGGAAAGCCCUGGUUAAUUCAACAGCUCGCAGUCAAG | -0.243
GGUCACGUCUCAAUCAACUCUUUAGAGGGGGGGAAAACCCCUUUACCCUCCACGUCAACAGCUCGCAGUCAAG | -0.393
GGUCACGUCUCAAUCAACUCAUCCUCCAGGGAAACCCCUGGCAAACUCAACAGCUCGCAGUCAAG | 0.0588
GGUCACGUCUCAAUCAACUCAUUCUCCAGGGAAAACCCUGGCUUACUCAACAGCUCGCAGUCAAG | 0.21
GGUCACGUCUCAAUCAACUCACACGAGGGGGGGAAAACCCCUUUACCCUCAUUUUCAACAGCUCGCAGUCAAG | 0.00982
GGUCACGUCUCAAUCAACUCAAUCCCCAGGGAAAUCCCUGGCAUAUUCAACAGCUCGCAGUCAAG | -0.193
GGUCACGUCUCAAUCAACUCAAUCCCAGGAGUUUUCUCCUGUAGUCUCAACAGCUCGCAGUCAAG | 1.19e-05
GGUCACGUCUCAAUCAACUCUUCUCCCAGGGAAAUCCCUGGCUAUGUCAACAGCUCGCAGUCAAG | -0.0858
GGUCACGUCUCAAUCAACUCUAUCUCCAGGGAAAGCCCUGGUAAUUUCAACAGCUCGCAGUCAAG | -0.273
GGUCACGUCUCAAUCAACUCUCUAGAGGGGGGGAAAACCCCUUUGCCCUCCAAAUCAACAGCUCGCAGUCAAG | -0.242
GGUCACGUCUCAAUCAACUCUUCCCCCAGGGAAAACCCUGGUUUAUUCAACAGCUCGCAGUCAAG | 0.0898

Sequence | binding signal (log2 fold change)
GGUCACGUCUCAAUCAACUCCUUAGAGGGGGGGAAAACCCCUUUGCCCUCACACUCAACAGCUCGCAGUCAAG | -0.122
GGUCACGUCUCAAUCAACUCAAUAGAGGGGGGGAAAACCCCUUUACCCUCAACCUCAACAGCUCGCAGUCAAG | -0.515
GGUCACGUCUCAAUCAACUCUAUCUCCAGGGAAAUCCCUGGCAUACUCAACAGCUCGCAGUCAAG | 0.136
GGUCACGUCUCAAUCAACUCGUUUUCAGGAGUUUACUCCUGCUUAUUCAACAGCUCGCAGUCAAG | 0.329
GGUCACGUCUCAAUCAACUCAACGCCAGGAGUUUUCUCCUGCUUAUUCAACAGCUCGCAGUCAAG | -0.141
GGUCACGUCUCAAUCAACUCCACUGAGGGGGGGAAAACCCCUUUACCCUCCACAUCAACAGCUCGCAGUCAAG | -0.0132
GGUCACGUCUCAAUCAACUCUACUCCAGGAGUUUUCUCCUGCAAUUUCAACAGCUCGCAGUCAAG | 0.0617
GGUCACGUCUCAAUCAACUCCAACGAGGGGGGGAAAACCCCUUUACCCUCAAUUUCAACAGCUCGCAGUCAAG | -0.626
GGUCACGUCUCAAUCAACUCUUACGAGGGGGGGAAAACCCCUUUACCCUCCAAAUCAACAGCUCGCAGUCAAG | -0.152
GGUCACGUCUCAAUCAACUCUUCUUCAGGAGUUUCCUCCUGCAUUCUCAACAGCUCGCAGUCAAG | -0.0103
GGUCACGUCUCAAUCAACUCAAUUUCAGGAGUUUGCUCCUGCUUACUCAACAGCUCGCAGUCAAG | -0.0335
GGUCACGUCUCAAUCAACUCUCUAGAGGGGGGGAAAACCCCUUUACCCUCAUAAUCAACAGCUCGCAGUCAAG | -0.245
GGUCACGUCUCAAUCAACUCACACGAGGGGGGGAAAACCCCUUUACCCUCUAUCUCAACAGCUCGCAGUCAAG | -0.155
GGUCACGUCUCAAUCAACUCAGUCCCCAGGGAAAACCCUGGUUUAUUCAACAGCUCGCAGUCAAG | -0.155
GGUCACGUCUCAAUCAACUCAAUUUCCAGGGAAAUCCCUGGCUUACUCAACAGCUCGCAGUCAAG | -0.242
GGUCACGUCUCAAUCAACUCAUCUUCCAGGGAAAUCCCUGGCGUAUUCAACAGCUCGCAGUCAAG | -0.269
GGUCACGUCUCAAUCAACUCUAGUCCCAGGGAAACCCCUGGCAUAUUCAACAGCUCGCAGUCAAG | -0.32
GGUCACGUCUCAAUCAACUCGUCUUCAGGAGUUUACUCCUGCAUUUUCAACAGCUCGCAGUCAAG | -0.118
GGUCACGUCUCAAUCAACUCACACGAGGGGGGGAAAACCCCUUUACCCUCCACAUCAACAGCUCGCAGUCAAG | 0.116
GGUCACGUCUCAAUCAACUCUUUCCCAGGAGUUUUCUCCUGCUAACUCAACAGCUCGCAGUCAAG | 0.176
GGUCACGUCUCAAUCAACUCAACUCCCAGGGAAAUCCCUGGCAUUCUCAACAGCUCGCAGUCAAG | -0.0583
GGUCACGUCUCAAUCAACUCUAUUCCAGGAGUUUACUCCUGUAUAUUCAACAGCUCGCAGUCAAG | -0.17
GGUCACGUCUCAAUCAACUCUCAAGAGGGGGGGAAAACCCCUUUACCCUCAAUAUCAACAGCUCGCAGUCAAG | -0.838
GGUCACGUCUCAAUCAACUCAAGGUCAGGAGUUUACUCCUGUUUAUUCAACAGCUCGCAGUCAAG | -0.241
